Results published in a collection of fitness landscapes (doi:10.1016/j.celrep.2020.107928).
Whole data set: some 81,000 sequences, median “one-hybrid fitness for binding NBS DNA” near -0.1, cut for the highest 2% near 0.36. This is one part of the list.

B1: Caulobacter ParB omega fusion; a variant is named by its letters at X, in order, B8GW30 (parent)
chain: MESVVVGEPGMSEGRRGLGRGLSALLGEVDAAPAQAPGEQLGGSREAPIEILQRNPDQPRRTFREEDLEDLSNSIREKGVLQPILVRPSPDTAGEYQIVAGERAWRAAQRAGLKTVPIMVRELDDLAVLEIGIIENVQRADLNVLEEALSYKVLMEKFERTQENIAQTIGKSXSHVANXMRLLXLPDEVQSYLVSGELTAXHARAIAAAADPVALAKQIIEGGLSVRETEALARKAPNLSAGKSKGGRPPRVKDTDTQALESDLSSVLGLDVSIDHRGSTGTLTITYATLEQLDDLCNRLTRGI

Variants of: B1
Assay: one-hybrid fitness for binding NBS DNA (the Noc-binding site; scaled: cognate 1, non-cognate 0); higher = stronger binding
Settings: with NBS DNA site
Procedure, shortened: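 Selection: bacterial one-hybrid in E. coli USO, HIS3 reporter with the site 19 bp from the promoter, 48 hours at 37°C on M9-minus-histidine plus 0.1 mM IPTG and 5 mM 3-AT. Libraries were Caulobacter ParB with four randomised specificity codons, sequenced on Illumina before and after selection. Fitness is the rescaled log change in variant-to-wild-type read ratio, anchored to the cognate and non-cognate sites.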

HWEG and RFVG cannot be ordered by “one-hybrid fitness for binding NBS DNA” value: ≤ 0.2 for the first, ≤ 0.2 for the second.

TICT and EALH cannot be ordered by “one-hybrid fitness for binding NBS DNA” value: ≤ 0.2 for the first, ≤ 0.2 for the second.

HFVC and PSYG cannot be ordered by “one-hybrid fitness for binding NBS DNA” value: ≤ 0.2 for the first, ≤ 0.2 for the second.

TVVI and SQAM cannot be ordered by “one-hybrid fitness for binding NBS DNA” value: ≤ 0.2 for the first, ≤ 0.2 for the second.

QGHS and TIQE cannot be ordered by “one-hybrid fitness for binding NBS DNA” value: ≤ 0.2 for the first, ≤ 0.2 for the second.

RTYQ and SNKC cannot be ordered by “one-hybrid fitness for binding NBS DNA” value: ≤ 0.2 for the first, ≤ 0.2 for the second.

LEDR and EANT cannot be ordered by “one-hybrid fitness for binding NBS DNA” value: ≤ 0.2 for the first, ≤ 0.2 for the second.

WCYC and VNER cannot be ordered by “one-hybrid fitness for binding NBS DNA” value: ≤ 0.2 for the first, ≤ 0.2 for the second.

NTLP and TPLR cannot be ordered by “one-hybrid fitness for binding NBS DNA” value: ≤ 0.2 for the first, ≤ 0.2 for the second.

PQTL and QQCF cannot be ordered by “one-hybrid fitness for binding NBS DNA” value: ≤ 0.2 for the first, ≤ 0.2 for the second.

AKAI and NVMG cannot be ordered by “one-hybrid fitness for binding NBS DNA” value: ≤ 0.2 for the first, ≤ 0.2 for the second.

VFGS and NSDA cannot be ordered by “one-hybrid fitness for binding NBS DNA” value: ≤ 0.2 for the first, ≤ 0.2 for the second.

HYGR and QDTM cannot be ordered by “one-hybrid fitness for binding NBS DNA” value: ≤ 0.2 for the first, ≤ 0.2 for the second.

SGIK and DDHK cannot be ordered by “one-hybrid fitness for binding NBS DNA” value: ≤ 0.2 for the first, ≤ 0.2 for the second.

Going from EAPR to RNHL, the “one-hybrid fitness for binding NBS DNA” value falls from 0.408 to ≤ 0.2.

GITD and FIHR cannot be ordered by “one-hybrid fitness for binding NBS DNA” value: ≤ 0.2 for the first, ≤ 0.2 for the second.

LHMG and PSLM cannot be ordered by “one-hybrid fitness for binding NBS DNA” value: ≤ 0.2 for the first, ≤ 0.2 for the second.

KTDR and DHPH cannot be ordered by “one-hybrid fitness for binding NBS DNA” value: ≤ 0.2 for the first, ≤ 0.2 for the second.

SIRT and LAKV cannot be ordered by “one-hybrid fitness for binding NBS DNA” value: ≤ 0.2 for the first, ≤ 0.2 for the second.

QFPL and GLAL cannot be ordered by “one-hybrid fitness for binding NBS DNA” value: ≤ 0.2 for the first, ≤ 0.2 for the second.

CMNG and VSMR cannot be ordered by “one-hybrid fitness for binding NBS DNA” value: ≤ 0.2 for the first, ≤ 0.2 for the second.

PHDR and SLIL cannot be ordered by “one-hybrid fitness for binding NBS DNA” value: ≤ 0.2 for the first, ≤ 0.2 for the second.

ATSQ and RSFI cannot be ordered by “one-hybrid fitness for binding NBS DNA” value: ≤ 0.2 for the first, ≤ 0.2 for the second.

WEEG and IRSL cannot be ordered by “one-hybrid fitness for binding NBS DNA” value: ≤ 0.2 for the first, ≤ 0.2 for the second.

IRLS and TTII cannot be ordered by “one-hybrid fitness for binding NBS DNA” value: ≤ 0.2 for the first, ≤ 0.2 for the second.

First: VSEK
Second: TQRR
The “one-hybrid fitness for binding NBS DNA” value of the first is lower: ≤ 0.2 for the first, 0.285 for the second.

VPTG and ARHT cannot be ordered by “one-hybrid fitness for binding NBS DNA” value: ≤ 0.2 for the first, ≤ 0.2 for the second.

Going from VIQG to RTYT, the “one-hybrid fitness for binding NBS DNA” value rises from ≤ 0.2 to 0.494.

NKNY and TPKT cannot be ordered by “one-hybrid fitness for binding NBS DNA” value: ≤ 0.2 for the first, ≤ 0.2 for the second.

QWKA and KISG cannot be ordered by “one-hybrid fitness for binding NBS DNA” value: ≤ 0.2 for the first, ≤ 0.2 for the second.

VAKS and QWRI cannot be ordered by “one-hybrid fitness for binding NBS DNA” value: ≤ 0.2 for the first, ≤ 0.2 for the second.

QSFC and LAKE cannot be ordered by “one-hybrid fitness for binding NBS DNA” value: ≤ 0.2 for the first, ≤ 0.2 for the second.

LRTK and AYGG cannot be ordered by “one-hybrid fitness for binding NBS DNA” value: ≤ 0.2 for the first, ≤ 0.2 for the second.

VWYL and SIHK cannot be ordered by “one-hybrid fitness for binding NBS DNA” value: ≤ 0.2 for the first, ≤ 0.2 for the second.

MRSL and QSTG cannot be ordered by “one-hybrid fitness for binding NBS DNA” value: ≤ 0.2 for the first, ≤ 0.2 for the second.

RIVA and PPRK cannot be ordered by “one-hybrid fitness for binding NBS DNA” value: ≤ 0.2 for the first, ≤ 0.2 for the second.

CHSS and QYEY cannot be ordered by “one-hybrid fitness for binding NBS DNA” value: ≤ 0.2 for the first, ≤ 0.2 for the second.

MGAE and TAVK cannot be ordered by “one-hybrid fitness for binding NBS DNA” value: ≤ 0.2 for the first, ≤ 0.2 for the second.

NKRG and RDKA cannot be ordered by “one-hybrid fitness for binding NBS DNA” value: ≤ 0.2 for the first, ≤ 0.2 for the second.

PRPS and KYNR cannot be ordered by “one-hybrid fitness for binding NBS DNA” value: ≤ 0.2 for the first, ≤ 0.2 for the second.

VHIR and VYIR cannot be ordered by “one-hybrid fitness for binding NBS DNA” value: ≤ 0.2 for the first, ≤ 0.2 for the second.

VTVK and MMRL cannot be ordered by “one-hybrid fitness for binding NBS DNA” value: ≤ 0.2 for the first, ≤ 0.2 for the second.
